{
  "source": "PubChem BioAssay AID445",
  "about": "(National Center for Advancing Translational Sciences (NCATS), 2006)",
  "note": "Among all 110,000 compounds or so, about 40 (0.04%) were called active. The inconclusive results got no clear call from the source; some entries with a clear call stand among them for comparison. Calls come from the whole dose curve; as a rule, active = well fitted curve in the direction sought with a large enough effect in the signal ratio (not every such curve was filed as active); inconclusive = small, poorly fitted or top-dose-only effect, or a change in a side signal; inactive = flat fitted curve, though single readings scatter; the % refers to the signal ratio. Where the call is inconclusive, the potency comes from a doubtful curve fit. Potency is the fitted concentration of half-maximal effect.",
  "data": [
    {"assay": "IkB Signaling;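 for IkBa stabilization activation: 0% = basal untreated cells and 100% = reference inhibitor full response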", "conditions": "ABC-DLBCL IkBa-CBG/CBR dual luciferase ratio (green luciferase fused to IkBa over red control in OCI-Ly3 lymphoma cells), 4 h; IkBa stabilization activation: at 57.1 µM (top of the series), scaled: untreated 0%, proteasome inhibitor 100% unless noted", "procedure,_shortened": "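Luminescence ratio of IκBα-fused green versus native red beetle luciferase in OCI-Ly3 cells, 4 h post-doxycycline with compound; red signal alone, scaled from basal (0%) to zero light (-100%), flagged nonspecific or cytotoxic effects.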", "values": [
      {"smiles": "COc1ccc(NC(=O)c2ccco2)cc1NC(=O)c1c(OC)cccc1OC", "IkBa stabilization activation": "inconclusive: 3.37% [signal inhibitor]"},
      {"smiles": "NC(N)=N/N=C(\\c1ccc(Cl)cc1)C1CC1", "IkBa stabilization activation": "inactive: 2.57% [at 11.4 µM, scaled: untreated 0%, proteasome inhibitor 100%]"},
      {"smiles": "CC1CCCCN1C(=O)CCS(=O)(=O)c1cc2c(cc1Cl)NC(=O)CO2", "note": "(configuration not stated)", "IkBa stabilization activation": "inconclusive: -0.458% [signal inhibitor]"},
      {"smiles": "C/C(=N/O)[C@@H]1C[C@H](CC(=O)O)C1(C)C", "IkBa stabilization activation": "inactive: -1.45% [at 11.4 µM, scaled: untreated 0%, proteasome inhibitor 100%]"},
      {"smiles": "Cc1cccc(C(=O)N2CCc3cc(CNS(=O)(=O)c4ccc(F)c(Cl)c4)ccc32)c1", "IkBa stabilization activation": "inconclusive: 0.551% [signal inhibitor]"},
      {"smiles": "CCC(=O)N1CCc2cc(S(=O)(=O)Nc3cc(C)ccc3OC)ccc21", "IkBa stabilization activation": "inconclusive: 7.2% [signal inhibitor]"},
      {"smiles": "Cc1onc(-c2ccccc2)c1C(=O)Nc1nc2c(s1)CCCC2", "IkBa stabilization activation": "inactive"},
      {"smiles": "Cc1cc(C)cc(NC(=O)c2cc(S(=O)(=O)N3CCc4ccccc43)cn2C)c1", "IkBa stabilization activation": "inconclusive: -3.55% [signal inhibitor]"},
      {"smiles": "COc1ccccc1CNC(=O)c1ccc2c(c1)N(Cc1c(F)cccc1Cl)C(=O)CS2", "IkBa stabilization activation": "inconclusive: 4.54% [signal inhibitor]"},
      {"smiles": "COc1cccc(NC(=O)Cn2c(=O)n(CCCCC(=O)NCc3ccccc3Cl)c(=O)c3ccccc32)c1", "IkBa stabilization activation": "inconclusive: 4.69% [signal inhibitor]"},
      {"smiles": "CC(C)NC(=O)C1(O)c2ccccc2NC(=O)N1c1ccc(Cl)c(Cl)c1", "note": "(configuration not stated)", "IkBa stabilization activation": "inconclusive: 6.94% [signal inhibitor]"},
      {"smiles": "O=C(CSc1ncc(S(=O)(=O)c2ccc(Br)cc2)c(=O)[nH]1)Nc1ccc2c(c1)OCCO2", "IkBa stabilization activation": "inconclusive: 0.00354% [signal inhibitor]"},
      {"smiles": "CC1CCN(C(=O)CSc2nc3ccccc3nc2Cc2ccccc2)CC1", "IkBa stabilization activation": "inconclusive: 1.98% [signal inhibitor]"},
      {"smiles": "CCOc1ccccc1N1CCN(S(=O)(=O)c2ccc(C3CCCCC3)cc2)CC1", "IkBa stabilization activation": "inconclusive: 4.12% [signal inhibitor]"},
      {"smiles": "Cc1ccc(C(NC(=O)N2CCOCC2)=C(Cl)Cl)cc1F", "IkBa stabilization activation": "inconclusive: 8.16% [signal activator]"},
      {"smiles": "Nc1ncnc2c1ncn2[C@H]1O[C@@H](C(=O)OCCO)[C@@H](O)[C@H]1O", "IkBa stabilization activation": "inactive: -1.07% [at 11.4 µM, scaled: untreated 0%, proteasome inhibitor 100%]"},
      {"smiles": "CCOC(=O)c1c(S(=O)(=O)N2CCC(C(=O)Nc3ccc(F)cc3F)CC2)c(C)n(C)c1C", "IkBa stabilization activation": "inconclusive: -0.893% [signal inhibitor]"},
      {"smiles": "COc1ccc(CNC(=O)Cc2c(C)c3cc4c(C)coc4c(C)c3oc2=O)cc1OC", "IkBa stabilization activation": "inconclusive: 1.17% [signal inhibitor]"},
      {"smiles": "CCn1nc(NC(=O)c2ccccn2)c2cc3cc(C)ccc3nc21", "IkBa stabilization activation": "inactive"},
      {"smiles": "c1cn2c(NC3CCCC3)c(-c3ccc(N4CCOCC4)cc3)nc2cn1", "IkBa stabilization activation": "inactive"},
      {"smiles": "COc1ccc(-n2cc(C(=O)Oc3cc(C)cc(C)c3)c3ccccc3c2=O)cc1", "IkBa stabilization activation": "inconclusive: 1.09% [signal inhibitor]"},
      {"smiles": "COc1cccc(NC(=O)Cn2cc(C(=O)c3ccco3)c3ccccc32)c1", "IkBa stabilization activation": "inconclusive: 11.7% [signal inhibitor]"},
      {"smiles": "COc1cc(CO)cc(-c2cc(CO)cc(OC)c2OC)c1OC", "IkBa stabilization activation": "inactive"},
      {"smiles": "COc1ccc(Cn2c(=O)c3ccccc3n3c(-c4cccc(OC)c4OC)nnc23)cc1", "IkBa stabilization activation": "inactive"},
      {"smiles": "Cc1cccc(NC(=O)C2CCN(c3cnccn3)CC2)c1", "IkBa stabilization activation": "inconclusive: -1.33% [signal inhibitor]"},
      {"smiles": "COc1ccc(CC(=O)Nc2ccc3nc(N4CCCCC4)cc(C)c3c2)cc1", "IkBa stabilization activation": "inconclusive: -0.287% [signal inhibitor]"},
      {"smiles": "Cc1ccc(CNC(=O)c2cc3c(s2)-c2c(C)cccc2OC3)cc1", "IkBa stabilization activation": "inconclusive: 4.6% [signal inhibitor]"},
      {"smiles": "COc1ccc2c(c1)c1c(c(=O)n(Cc3ccccc3)c(=O)n1CC(=O)NCc1ccccc1)n2C", "IkBa stabilization activation": "inconclusive: 2.35% [signal inhibitor]"},
      {"smiles": "CN(C)CCN(Cc1ccco1)C(=O)c1oc2ccccc2c1NC(=O)c1cccc(F)c1", "IkBa stabilization activation": "inactive"},
      {"smiles": "CCOCCCNC(=O)c1ccc(-n2c(-c3ccccc3)cc3c2CCCCC3)cc1", "IkBa stabilization activation": "inconclusive: 0.737% [signal inhibitor]"},
      {"smiles": "N[C@@](CCc1ccccc1)(C(=O)O)c1ccccc1", "IkBa stabilization activation": "inactive: -1.08% [at 11.4 µM, scaled: untreated 0%, proteasome inhibitor 100%]"},
      {"smiles": "COc1ccc(N2CCN(C(=O)c3cc4c(-c5cccc(OC)c5)nn(C)c4s3)CC2)cc1", "IkBa stabilization activation": "inactive"},
      {"smiles": "CCCN(CCC)S(=O)(=O)c1ccc(C(=O)Nc2nnc(CSC)o2)cc1", "IkBa stabilization activation": "inactive"},
      {"smiles": "Oc1ccc(NCc2ccc(OCc3ccccc3)cc2)cc1", "Potency": "inconclusive: 31.6 µM [signal inhibitor, partial curve]"},
      {"smiles": "Cc1cc(=O)oc2cc(OCC(=O)Nc3ccc(O)c(C(=O)O)c3)ccc12", "IkBa stabilization activation": "inconclusive: 2.32% [signal inhibitor]"},
      {"smiles": "CCOc1ccc(NC(=O)CCc2c(C)nc3cc(-c4ccc(Cl)cc4)nn3c2C)cc1", "Potency": "inconclusive: 0.126 µM [signal inhibitor, partial curve]"},
      {"smiles": "Cc1ccc(CNC(=O)CS(=O)(=O)Cc2nc(-c3ccccc3C)oc2C)cc1", "IkBa stabilization activation": "inconclusive: 0.599% [signal inhibitor]"},
      {"smiles": "Cc1cccc(Cn2c(SCc3ccc(C(=O)NC4CCCC4)cc3)nc3ccncc32)c1", "IkBa stabilization activation": "inconclusive: 3.91% [signal inhibitor]"},
      {"smiles": "CCN(CC)S(=O)(=O)c1ccc2c(c1)N(CC(=O)NCCCN1CCN(c3cc(Cl)ccc3C)CC1)C(=O)CO2", "IkBa stabilization activation": "inconclusive: 0.529% [signal inhibitor]"},
      {"smiles": "O=C(Cn1nnc(-c2ccc(CN3CCOCC3)cc2)n1)Nc1nc(-c2ccccc2)cs1", "IkBa stabilization activation": "inconclusive: 12.3%"},
      {"smiles": "CCOC(=O)C1CCC(CN(Cc2ccc(OC)cc2)S(=O)(=O)c2ccc(F)c(C(=O)Nc3c(C)cccc3C)c2)CC1", "note": "(configuration not stated)", "IkBa stabilization activation": "inconclusive: 2.51% [signal inhibitor]"},
      {"smiles": "Cc1cc(F)ccc1NC(=O)CS(=O)(=O)c1cccc2nsnc12", "IkBa stabilization activation": "inactive"},
      {"smiles": "CCOc1cc(C2NC(=O)NC(O)(C(F)(F)F)C2C(=O)c2ccc(Cl)cc2)ccc1O", "note": "(configuration not stated)", "IkBa stabilization activation": "inactive"},
      {"smiles": "CSc1ccc(CCNC(=O)c2cc3cc(S(=O)(=O)N4CCCCC4)ccc3n2C)cc1", "IkBa stabilization activation": "inactive"},
      {"smiles": "CC(C)c1ccc(NC(=O)N2CCC(c3nc4ccccc4o3)CC2)cc1", "IkBa stabilization activation": "inconclusive: 10.8% [signal inhibitor]"},
      {"smiles": "COc1ccc(N2CC(NC(=O)C3CCCC3)CC2=O)cc1OC", "note": "(configuration not stated)", "IkBa stabilization activation": "inconclusive: 7.23% [signal activator]"},
      {"smiles": "Cn1nc(C(=O)N2CCN(c3ccc(F)cc3)CC2)c2c1-c1ccccc1SC2", "IkBa stabilization activation": "inactive"},
      {"smiles": "CC(C)c1ccc(NC(=O)Cn2nnc(C(=O)NCc3ccc(Cl)cc3)c2N)cc1", "IkBa stabilization activation": "inconclusive: 1.57% [signal inhibitor]"},
      {"smiles": "CCNC(=O)c1c(NC(=O)c2nc(S(=O)(=O)CC)ncc2Cl)sc2c1CCCC2", "IkBa stabilization activation": "inconclusive: -4.46% [signal inhibitor]"},
      {"smiles": "COc1ccccc1NC(=O)c1sc2nc3c(cc2c1N)CN(Cc1ccccc1)CC3", "IkBa stabilization activation": "inconclusive: 2.37% [signal inhibitor]"},
      {"smiles": "COc1ccccc1N(C(=O)c1snc(C(N)=O)c1N)C(C(=O)NC1CCCC1)c1ccco1", "note": "(configuration not stated)", "Potency": "inconclusive: 15.8 µM [signal inhibitor, partial curve]"},
      {"smiles": "CSc1nc(N)nc(SCCS(=O)(=O)c2ccc(Cl)cc2)c1C#N", "IkBa stabilization activation": "inconclusive: 18.7% [signal inhibitor]"},
      {"smiles": "CCc1nc(C)cn1S(=O)(=O)c1ccc(Cl)c(Cl)c1OC", "IkBa stabilization activation": "inactive"},
      {"smiles": "C[C@@]12C[C@@H](O)[C@H]3[C@@H](CCC4=CC(=O)CC[C@]43C)[C@H]1CC[C@H]2C(=O)CO", "IkBa stabilization activation": "inconclusive: 9.75% [signal activator] [at 25.6 µM, scaled: untreated 0%, proteasome inhibitor 100%]", "Potency": "inconclusive: 0.126 µM [rising, full curve]"},
      {"smiles": "CCc1cc(=O)[nH]c(SCc2nc(-c3ccccc3)no2)n1", "IkBa stabilization activation": "inactive"},
      {"smiles": "Cn1c(CCNC(=O)c2ccco2)nc2cc(NC(=O)c3ccco3)ccc21", "IkBa stabilization activation": "inactive"},
      {"smiles": "COC(=O)c1cc(C)nc2c1c(=O)nc(SCc1ccccc1Cl)n2C1CC1", "IkBa stabilization activation": "inconclusive: 0.159% [signal inhibitor]"},
      {"smiles": "Cc1ccc(OCC(=O)Nc2ccc3nn(-c4ccc(C)cc4)nc3c2)cc1", "IkBa stabilization activation": "inactive"},
      {"smiles": "CN1CCc2c(sc3c2C(=O)NC(c2ccc4c(c2)OCO4)N3)C1", "note": "(configuration not stated)", "IkBa stabilization activation": "inactive"},
      {"smiles": "Cn1cnc(S(=O)(=O)N2CCC(C(=O)Nc3ccc(Cl)c(C(F)(F)F)c3)CC2)c1", "IkBa stabilization activation": "inconclusive: 3.14% [signal inhibitor]"},
      {"smiles": "CCc1cccc(NS(=O)(=O)c2ccc3c(c2)N(CC(=O)OC)C(=O)CS3)c1", "IkBa stabilization activation": "inconclusive: -0.489% [signal inhibitor]"},
      {"smiles": "CC(C)c1ccccc1NC(=O)Cn1cnc2c1c(=O)n(C)c(=O)n2C", "IkBa stabilization activation": "inactive"},
      {"smiles": "COc1ccc(-c2cc(C(=O)NCCc3ccccc3)c3c(-c4ccc(Cl)cc4)[nH]nc3n2)cc1", "IkBa stabilization activation": "inactive"},
      {"smiles": "C=CCn1c(NCc2cc(C)ccc2O)nc2ccccc21", "IkBa stabilization activation": "inconclusive: 5.76% [signal inhibitor]"},
      {"smiles": "Cc1ccc(CSc2nc3ccncc3n2Cc2nc(-c3ccccc3C)oc2C)cc1", "IkBa stabilization activation": "inactive"},
      {"smiles": "O=C(Cn1c(=O)n(Cc2ccc(C(=O)NCc3ccc4c(c3)OCO4)cc2)c(=O)c2ccccc21)Nc1ccccc1F", "IkBa stabilization activation": "inconclusive: 2.94% [signal inhibitor]"}
    ]}
  ]
}
